Test results published in the supplement of paper PMC4996465.
Viability of KB3-1 and Nalm-6 cells after 48 h of drug alone (CellTiter-Glo), 11 doses over about 4.5 log units. % of DMSO wells, lower = more cell loss; AC50 from the fitted curve, lower = more potent. No active / inactive call. Nalm-6 was screened in two runs. AC50 is listed only for well-fitted inhibitory curves. KB3-1 is a HeLa-derived carcinoma line, Nalm-6 a B-cell precursor leukaemia line.

Legend:
KB3-1 = assay: viability (% of DMSO control); higher = more viable cells
Protocol: (§1)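 Eleven-dose screen of the NCATS MIPE 3 library on cells without co-treatment; CellTiter-Glo after 48 h, as % of DMSO wells.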

Nalm-6 = assay: as above
Protocol: as §1

Compound	viability (KB3-1; 0.00078 µM) [%]	viability (KB3-1; 0.00234 µM) [%]	viability (KB3-1; 0.00702 µM) [%]	viability (KB3-1; 0.0211 µM) [%]	viability (KB3-1; 0.0632 µM) [%]	viability (KB3-1; 0.19 µM) [%]	viability (KB3-1; 0.569 µM) [%]	viability (KB3-1; 1.71 µM) [%]	viability (KB3-1; 5.12 µM) [%]	viability (KB3-1; 15.4 µM) [%]	viability (KB3-1; 46.1 µM) [%]	viability (Nalm-6; run: 1, 0.00078 µM) [%]	viability (Nalm-6; run: 1, 0.00234 µM) [%]	viability (Nalm-6; run: 1, 0.00702 µM) [%]	viability (Nalm-6; run: 1, 0.0211 µM) [%]	viability (Nalm-6; run: 1, 0.0632 µM) [%]	viability (Nalm-6; run: 1, 0.19 µM) [%]	viability (Nalm-6; run: 1, 0.569 µM) [%]	viability (Nalm-6; run: 1, 1.71 µM) [%]	viability (Nalm-6; run: 1, 5.12 µM) [%]	viability (Nalm-6; run: 1, 15.4 µM) [%]	viability (Nalm-6; run: 1, 46.1 µM) [%]	viability (Nalm-6; run: 2, 0.00078 µM) [%]	viability (Nalm-6; run: 2, 0.00234 µM) [%]	viability (Nalm-6; run: 2, 0.00702 µM) [%]	viability (Nalm-6; run: 2, 0.0211 µM) [%]	viability (Nalm-6; run: 2, 0.0632 µM) [%]	viability (Nalm-6; run: 2, 0.19 µM) [%]	viability (Nalm-6; run: 2, 0.569 µM) [%]	viability (Nalm-6; run: 2, 1.71 µM) [%]	viability (Nalm-6; run: 2, 5.12 µM) [%]	viability (Nalm-6; run: 2, 15.4 µM) [%]	viability (Nalm-6; run: 2, 46.1 µM) [%]
CCCCC/C=C\C/C=C\C/C=C\C/C=C\CCCC(=O)NC1CC1 [ACPA]	101	104	101	104	102	103	106	106	100	100	85	94.1	98.1	110	106	105	120	112	119	108	109	108	96.8	98.1	108	104	113	98.8	104	110	107	97.5	103
Cc1csc(-c2nnc(Nc3ccc(Oc4ncccc4-c4ccnc(N)n4)cc3)c3ccccc23)c1 [AMG-900]	85.1	81.7	82.8	78.9	87.7	88.3	84.2	88.2	85.4	85.7	33.9	57.7	67.7	68.4	72	71.6	60.3	62.6	64.1	87.5	83	23.5	77.4	89.3	84.4	90.3	81.2	78.5	73.2	71.5	78.2	88.3	16.3
CC(=O)NCCC(=O)N[C@@H](CCC(N)=O)C(=O)N[C@@H](CO)C(=O)N[C@@H](CCC(N)=O)C(=O)N[C@@H](CCC(N)=O)C(=O)N[C@H](C(=O)N[C@@H](Cc1ccccc1)C(=O)N[C@]1(C)CCCCCC/C=C\CCC[C@@](C)(C(=O)N[C@@H](CCC(N)=O)C(=O)N[C@@H](CC(N)=O)C(N)=O)NC(=O)[C@H](CC(C)C)NC(=O)[C@H](CC(C)C)NC(=O)[C@@H](CCCNC(=N)N)NC(=O)[C@H](Cc2c[nH]c3ccccc23)NC(=O)[C@H](CC(C)C)NC(=O)[C@H](CC(N)=O)NC1=O)[C@H](C)O [Ac-SAH-p53-8]	99.6	103	96.6	104	106	102	103	101	105	94.1	96.9	125	106	115	115	127	123	125	119	127	115	24.8	111	114	111	105	100	116	111	109	110	106	3.33
NC(=O)c1ncn([C@@H]2O[C@H](CO)[C@@H](O)[C@H]2O)c1N [Acadesine]	99.1	104	100	99.1	102	105	103	106	107	105	106	104	113	102	120	103	109	120	121	119	121	123	102	107	97.1	113	102	104	110	111	118	109	126
CC(=O)SC[C@@H](C)C(=O)N1CCC[C@H]1C(=O)N[C@@H](Cc1ccccc1)C(=O)O [Alacepril]	102	99.3	100	108	105	99.2	104	99.8	98.7	95.4	96.8	70.3	67.9	79.6	88.4	94.1	92.6	104	109	115	109	103	107	108	107	105	108	104	108	107	105	102	104
COC1=CC=CC(=C1/C2=N/CC3=C(N=C(NC4=CC(=C(C=C4)C(O)=O)OC)N=C3)C5=CC=C(Cl)C=C25)F [Alisertib]	94.5	93.5	87.3	67.9	58.6	89.9	90.5	86.9	79.6	79.5	41.3	91.7	85.3	63.6	60.6	63.9	59.7	63.5	72.8	76.7	64.8	34.5	99.6	98.3	70.4	62.7	66.7	70.9	72	73.1	61	68.3	32.5
CC(=O)Nc1ccc(OC[C@](C)(O)C(=O)Nc2ccc([N+](=O)[O-])c(C(F)(F)F)c2)cc1 [Andarine]	99.3	104	99.2	102	105	109	105	95.4	97.7	103	94.1	79.3	93	102	103	105	108	115	105	117	107	92.7	106	109	118	110	108	114	110	112	112	109	99.7
Nc1nc(-c2nn(Cc3ccccc3F)c3ncccc23)nc(N)c1N1CCOCC1 [BAY-41-8543]	102	96.6	104	108	104	103	97.1	96.4	94.5	97.7	98.1	-1.48	-1.2	-0.801	-0.0273	2.99	18.5	53.8	64.1	86.4	94.4	94.7	103	106	106	113	106	111	109	112	113	114	112
COC1=C(OC)C=C(CC/2=N/N\3C(C(C)\N=C3[C@@H](CCC4=CC=CC=C4)[C@@H](C)O)C(=O)N2)C=C1 (stereo not given in full) [BAY-60-7550]	109	106	106	108	97.5	110	105	103	103	99.7	79.5	106	111	109	120	117	123	110	114	110	105	61.3	103	109	104	108	107	110	106	105	111	107	62
Cn1c(CCCC(=O)O)nc2cc(N(CCCl)CCCl)ccc21 [Bendamustine]	108	104	99.6	99.1	99.5	99.4	99.5	99.3	98.7	98	104	104	104	106	109	111	116	106	112	90.8	92.2	107	99.4	105	107	103	103	91.7	104	97.9	101	95.5	95.9
